The text below walks through data of paper PMC12040169 (PLOS Biology, 2025).

The other results are listed elsewhere or left out.

For the assay, the system named is T1, C. trachomatis L2/434/Bu expressing GFP (CTL2-GFP).
T1 construct: L2/434/Bu GFP intracellular growth in HeLa cells
Set-up: species or system HeLa; C. trachomatis total inclusion area by high-content imaging, normalised to DMSO. The settings on record: total inclusion area; 28.5 h, 10 µM; inhibitor. The method in brief: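 Post-fluorescence-read fixation, DNA staining with Hoechst and high-content imaging; GFP inclusion area and number per well, and nuclei counts, used as proxies for bacterial growth and host viability.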
As to `COc1ccc(Cl)cc1/C=C/C(=O)NCc1ccc(C(=O)O)cc1` [CBK286908], the “% of control remaining” value was 110.508.

As to `NC(=O)c1cc(C(=O)c2ccccc2F)c[nH]1` [CBK017284], the “% of control remaining” value is reported as 36.5763.

With `CCCCc1c(C)nc2ccc(OC)cc2c1SCCC(=O)O` [CBK263888], the “% of control remaining” value came to 110.753.

`Cn1c(CNC(=O)c2ncoc2-c2cccs2)nc2ccccc21` [CBK283985]: the “% of control remaining” value came to 91.5945.

As to `Cc1nc(C)c(C(=O)NCc2cccnc2N(C)C2CCCCC2)s1` [CBK306885], the “% of control remaining” value is reported as 115.422.

On to `NC(=S)NNC(=O)Nc1ccccc1` [CBK261595], for which the “% of control remaining” value is listed as 90.941.

Turning to `CS(=O)(=O)c1ccc(-c2c[nH]c([C@@H]3COCCN3Cc3ccc(C(=O)O)cc3)n2)cc1` [CBK289306], the “% of control remaining” value stood at 130.474.

In the case of `CS(=O)(=O)NCCCNc1ccc(C(F)(F)F)cc1[N+](=O)[O-]` [CBK263741], the “% of control remaining” value is recorded as 67.7761.

As for `COc1ccc(NC(=O)c2nn(-c3nc4ccccc4o3)c3ccccc23)cc1` [CBK048492], the “% of control remaining” value is 88.1302.

In the case of `CSCCCNC(=O)N1CCCC(CO)C1` (stereo not shown) [CBK156031], the “% of control remaining” value is on record as 90.1683.

In the case of `CCOc1ccccc1-n1c(CCC(=O)O)ccc1-c1cccs1` [CBK264794], the “% of control remaining” value was 114.757.

Take `COc1cc(C(=O)N2CCC3(CC2)CC(=O)c2ccc(C)cc2O3)ccc1O` [CBK166045]: the “% of control remaining” value turned out to be 102.432.

Regarding `CCN(CC)C(=O)C1CCCN(C(=O)NCCCSC)C1` (stereo not shown) [CBK156118], the “% of control remaining” value was 69.8199.

With `CCNc1ncnc2c1oc1ccccc12` [CBK263298], the “% of control remaining” value is 60.0146.

Turning to `CCOC(=O)C1CCN(Cn2nc(-c3cccs3)oc2=S)CC1` [CBK295165], the “% of control remaining” value stood at 115.215.

Take `CCOC(=O)CN1N=C(C)C(Cc2c(Cl)cccc2Cl)(OC)C1=O` (stereo not shown) [CBK112646]: the “% of control remaining” value is on record as 76.8723.

For the molecule `COc1ccc([C@H]2CN(C(=O)c3ccccc3)[C@@H]3CCN(Cc4ccccc4C)C[C@H]23)cc1` [CBK285583], the “% of control remaining” value amounted to 72.9734.

As to `Nc1cccc(-c2cn(C[C@H]3CC4CCN3C[C@@H]4C(=O)NC3CCCCC3)nn2)c1` (stereo partly shown) [CBK289083], the “% of control remaining” value was found to be 107.264.

Consider `CCCC(=O)Nc1ccc(OCc2nnc(C)o2)c(C(C)=O)c1` [CBK305943], for which the “% of control remaining” value came out at 80.4086.

As to `CS(=O)(=O)c1ccc(CN2C(=O)CC3(CCN(C(=O)Cc4cccs4)CC3)C2=O)cc1` [CBK155013], the “% of control remaining” value was 104.513.

With `O=C(CN(c1cccc(Cl)c1)S(=O)(=O)c1ccccc1)NN=C1CCCCC1` [CBK262470], the “% of control remaining” value amounted to 91.7474.

As to `Cc1cc(C)n2nc(C(=O)NCc3ccccn3)cc2n1` [CBK269015], the “% of control remaining” value is on record as 86.4238.

As for `Nc1ncc([C@H]2C[C@@H](O)[C@@H](CO)O2)c(=O)[nH]1` [CBK201246], the “% of control remaining” value worked out at 106.382.

Regarding `COc1ccc(C(CCN)c2ccccc2OC)cc1` (stereo not shown) [CBK266125], the “% of control remaining” value was 53.5077.

With `CCCNCCc1ccc(NC(=O)NCCc2ccccc2)cc1` [CBK173873T], the “% of control remaining” value turned out to be 87.3504.

On to `CN1C2CCC1CC(OC(=O)CN1CCCCC1)C2` (stereo not shown) [CBK278166C], for which the “% of control remaining” value amounted to 84.1134.

As for `Cc1cc(/C=C/C2=CCN(C)CC2)c(C)n1C1CC1` [CBK283858], the “% of control remaining” value was determined as 105.909.

For the molecule `COc1ccc(CC(=O)Nc2ccc(S(N)(=O)=O)cc2)cc1OC` [CBK263429], the “% of control remaining” value is recorded as 106.172.

`Cc1nccn1CC1(O)CCN(Cc2cn(C)c3ccccc23)CC1` [CBK285017]: the “% of control remaining” value is 98.3694.

In the case of `COc1ccc(-c2nc(NC(=O)c3ccncc3)cnc2-c2ccc(F)c(Cl)c2)cc1` [CBK036663], the “% of control remaining” value stood at 80.4339.

With `COc1ccc(-c2cnc(N)c(NCC(C)(C)CO)n2)c(OC)c1OC` [CBK063542], the “% of control remaining” value came out at 116.861.

For `c1cncc(COc2nccnc2N2CCN(CCN3CCOCC3)CC2)c1` [CBK083141], the “% of control remaining” value is 91.6704.

As to `CCOc1ncccc1C(=O)NCc1ccc(NC(N)=O)cc1` [CBK279382], the “% of control remaining” value amounted to 74.6949.

For `O=C(O)c1ccc(COc2ccc(/C=C3\SC(=S)N(Cc4cccnc4)C3=O)cc2)cc1` [CBK264637], the “% of control remaining” value was 119.27.

Take `O=C(O)Cc1csc(NC(=O)c2ccc(N3CCCCC3)c([N+](=O)[O-])c2)n1` [CBK296081]: the “% of control remaining” value turned out to be 106.222.

On to `Cn1ccnc1CN1CCN(Cc2nccn2C)CC1` [CBK266206C], for which the “% of control remaining” value turned out to be 80.7393.

With `Cc1ncc(CO)c(/C=N/N=C/c2ccc(O)c(O)c2)c1O` [CBK265075], the “% of control remaining” value came to 94.5873.

Turning to `O=C(COc1ccc2ccccc2c1Br)Nc1ccc(S(=O)(=O)N2CCCC2)cc1` [CBK264135], the “% of control remaining” value was found to be 122.086.

Regarding `COc1cc(Cn2c(-c3ccc(O)c(OC)c3)nc3ccccc32)ccc1O` [CBK291138], the “% of control remaining” value was determined as 70.2104.

As for `COc1ccc(CN2CCCn3c4c(c5cc(C)ccc53)CCCC42)cc1OCc1ccccc1` (stereo not shown) [CBK262879], the “% of control remaining” value is given as 68.135.

As for `COc1ccc(S(=O)(=O)N(CC(=O)Nc2ccc(F)cc2)c2ccccc2)cc1` [CBK264141], the “% of control remaining” value came to 118.851.

`CC(=O)NCCCCCC(=O)Nc1ccc(C(=O)O)cc1` [CBK287241]: the “% of control remaining” value stood at 122.21.

As for `O=C(c1cnccn1)N1CCN(c2nc3c(F)cccc3s2)CC1` [CBK287722], the “% of control remaining” value came out at 122.982.

With `O=C(CN1CCN(c2ccc(C(F)(F)F)cn2)CC1)c1ccc2c(c1)OCCO2` [CBK074700], the “% of control remaining” value turned out to be 1.9676.

Take `COc1ccccc1OCCO` [CBK000949]: the “% of control remaining” value was 101.228.

Regarding `Cc1nc(=O)c(-c2ccccc2)c(C)n1CCc1c[nH]cn1` [CBK287900], the “% of control remaining” value is reported as 96.6043.

As to `O=c1cc(NCCCN2CCN(Cc3ccccc3)CC2)c2ccccc2o1` [CBK011079], the “% of control remaining” value worked out at 48.8799.

As to `COc1cc(CNC(C)(C)CO)ccc1OCc1ccc(Cl)cc1` [CBK266433C], the “% of control remaining” value is 109.196.

Take `O=C1CC2(CCN(C(=O)C3CCCC3)CC2)Oc2ccccc21` [CBK283485]: the “% of control remaining” value amounted to 93.1159.

As for `COc1cc(-c2nccnc2N2CCN(c3ccncc3)CC2)cc(OC)c1OC` [CBK036847], the “% of control remaining” value came to 117.14.

Take `COC(=O)c1c(NC(=O)C(=O)NCc2ccco2)sc2c1CCCC2` [CBK269269]: the “% of control remaining” value is on record as 110.141.

`COCCSCc1cn2cc(Br)ccc2n1` [CBK306361]: the “% of control remaining” value is reported as 77.0014.
